# Experimental data from publication PMC12136788.
# This is one part of the list.
# T1: UNK ZnF1-3 (human, UniProt Q9C0B0 31-174)
# T1 sequence: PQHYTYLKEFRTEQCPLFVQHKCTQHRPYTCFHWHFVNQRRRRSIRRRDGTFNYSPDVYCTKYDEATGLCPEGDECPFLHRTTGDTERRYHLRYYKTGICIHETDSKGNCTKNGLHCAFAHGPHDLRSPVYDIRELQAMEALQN
# B1: chr3:124025330:124025331:+_ENSMUSG00000044528_ENSMUST00000058994|mus_hu|FALSE|FALSE (ssRNA)
# RNA: GGGAGUUCUACAGUCCGACGAUCUUUUUUUCCCAUUCAUAAUAAUCCUCCUCCCCUCAAAUGUCUUUAAAAAAUACAUGAAACAGUUCAAUAACAAAAACCGAAGAGCACGAACUAUUUUCAAAAACAGAAAAAUCUCUAGUGCAACAGAGGAUUGAGCAUCA
# B2: chr2:39278355:39278356:-_ENSG00000115904_ENST00000402219|hu_mus|FALSE|FALSE (ssRNA)
# RNA: GGGAGUUCUACAGUCCGACGAUCACAGCUUCCUACUAAUGGGUGGGGACUGCCUUCAUCUGUCAUUUCUACAGUAUCUUCUAUAUGGCCCAGUAACUUUACACUAAGUUCAUGUAUAUCUACUAUACGACUGAAUAUGUUUUCCAACAGAGGAUUGAGCAUCA
# B3: 31828029_31828323_880_CDS_ENSG00000204386_ENST00000375631|human|control|control (ssRNA)
# RNA: GGGAGUUCUACAGUCCGACGAUCGAGCUCAUAGGGCUGGCAUUCAUCAGGAUUGAAAUCAUUUUCCUGCUUGGGCUGACCGUAGGGGAUGCCGCUGACCCCACUUCCGUAGCGCCAGGAGGCACCAUGAUCAUCGCUGAGGAGCAACAGAGGAUUGAGCAUCA
# B4: 32059766_32061897_1963_3pUTR_ENSMUSG00000039262_ENSMUST00000036691|mouse|control|control (ssRNA)
# RNA: GGGAGUUCUACAGUCCGACGAUCAGAACAUGGUGGGUGCUUCUUGGACAGGGAACUCUGGGGAGCCUUUGCGGACAACAGGCCCAUUCUCUGGCGGGGAGACCUUCUCAAUGCCCGGGGAUCGGGGGACUUCCUUUUCCACUGCAACAGAGGAUUGAGCAUCA
# B5: chr7:28111804:28111805:-_ENSMUSG00000040488_ENSMUST00000121175|mus_hu|FALSE|FALSE (ssRNA)
# RNA: GGGAGUUCUACAGUCCGACGAUCAGAGUCGCAAGCGCAGGUGUAGCCGCUGGGCCGGGAAAUGCAGCGUCCUGGGCCGCAGACCUGGGGGUUGCGCUGACACAUGCCGGAGGAGGGACCUGAUUCAGGAAUCUCAGGACCAGUCAACAGAGGAUUGAGCAUCA
# B6: chr3:51261291:51261292:+_ENSMUSG00000063273_ENSMUST00000029303|mus_mus|FALSE|FALSE (ssRNA)
# RNA: GGGAGUUCUACAGUCCGACGAUCUUCAGCCUCUUUAAUCAGGUUGGCUUUUAACAUGUAUUUUGCACACUUGGAAUUAAUAAAUCUGUCUGCUGUGUCCAGGGCCUGGGCUUCAUCCAUCCACCUGGCAGCUUCUUUAAUAUUCAACAGAGGAUUGAGCAUCA
# B7: chr1:38108737:38108738:+_ENSMUSG00000026083_ENSMUST00000027252|mus_mus|FALSE|FALSE (ssRNA)
# RNA: GGGAGUUCUACAGUCCGACGAUCUUUGAAGGAAGGGCAAACUUUAAAACAGCAGCCAAGUCUUAAAGGAAGGGUGGGUGAGUGCAGGCACGCUGGACUGUGGGGCGGGGAACUGACCACUGUCAAACCAGUGUAAGUUGCUUGCAACAGAGGAUUGAGCAUCA
# B8: 32351617_32351737_1693_CDS_ENSMUSG00000024002_ENSMUST00000121285|mouse|control|control (ssRNA)
# RNA: GGGAGUUCUACAGUCCGACGAUCAGAGUCGUCAGUGGAACUGUCGCUGUCGGAAGAACUGUCGCUGCUGCUGUCACUAGAUGAGGGUGGGGCUACCACCUUUGUAGGGGGUGGCACUGCAGGAGAGGACACUGUAACAACUGGCAACAGAGGAUUGAGCAUCA
# B9: chr2:29769918:29769919:+_ENSMUSG00000026790_ENSMUST00000113756|mus_hu|FALSE|FALSE (ssRNA)
# RNA: GGGAGUUCUACAGUCCGACGAUCCUGCAAAUGCCCACGCAUGGACUCCAUGGAUUUAGAAAGCUCAGAGGCUGUCUUUGCUUGAGCCUUCUCACAUUGUAUUUCCUGAAGGAGCUCUUCCACCUCCUUGUCCUUGUCUUGCAGCAACAGAGGAUUGAGCAUCA
# B10: 29192280_29192400_3777_3pUTR_ENSG00000120875_ENST00000240100|human|control|control (ssRNA)
# RNA: GGGAGUUCUACAGUCCGACGAUCUGUUGUCUCUAAAUGGUUCCAUUGUCUGGGAACUGAAACCCUCCAUGCUUCACCCUGAACUGUUAUUUCUAGAGGAAGCAGGGAGCCUCUGGCUCUUCUAAAAAUUGCCAGUGGGAGCUCCAACAGAGGAUUGAGCAUCA
# B11: chr16:94690093:94690094:+_ENSMUSG00000040785_ENSMUST00000117648|mus_hu|mus_mus_mus_hu_True|58_78 (ssRNA)
# RNA: GGGAGUUCUACAGUCCGACGAUCGGGCUGGGAUGACGGACACACAGCCUCGAUUCCGGUAAAAAAAAGUCUUAGUCAAUACUAAUUAAAAAGUGUUAAUGAUUUUUGAAAAUCAGAUUACAUCUAUAAAAGAUGAAAAGCAAACAACAGAGGAUUGAGCAUCA
# B12: chr4:81936313:81936314:-_ENSMUSG00000008575_ENSMUST00000064770|mus_hu|motif|central (ssRNA)
# RNA: GGGAGUUCUACAGUCCGACGAUCCCCACAAAAAGUACCCAAAGAACGUUAUCCUCCAACCGGGCACAAUAAAACCUUCACGGACAUUCUGGCCCAGUCUGGGGUUGAUCCCAGAGGCCUGAACUCUAGAAAUUAAGUAACUGUCAACAGAGGAUUGAGCAUCA
# B13: chr7:140404665:140404666:+_ENSG00000090266_ENST00000247866|hu_hu|hu_hu_hu_mus_False|58_108 (ssRNA)
# RNA: GGGAGUUCUACAGUCCGACGAUCUGCGUACAGAGUGCCAGAGAGUUUACAGUGUCAGUCCUCGUCAUCAGGAGGGAUACCUAAUUCUUCAUCUGUCCACUGUGAAGGAUCUGGAUAUGAAAAGUGACCCAGCACAGCAUCCGACAACAGAGGAUUGAGCAUCA
# B14: 54187784_54189223_636_3pUTR_ENSMUSG00000021474_ENSMUST00000021930|mouse|control|control (ssRNA)
# RNA: GGGAGUUCUACAGUCCGACGAUCCCUUUGUCUCAUCAGUGGGAUGUUAAUGCAGUUAGCAGCAGCUACAGCAGCGAAGGGAACAAAACGUCCUAUCAGUGGGGAGACACGCUUGGUUAAGGCAUUGAGUCCUAGGGCCGUUGCCAACAGAGGAUUGAGCAUCA
# Biological target: T1, UNK ZnF1-3
# Assay: nsRBNS (natural sequence RNA bind-n-seq); RBNS binding buffer (assumed for nsRBNS): 25 mM Tris pH 7.5, 150 mM KCl, 3 mM MgCl2, 0.01% Triton X-100, 500 ug/ml BSA, 20 U/ml SUPERase-In, 4 C; UNK is unkempt and MSI1 is Musashi-1; names of the RNAs are library labels; protein concentration not given here; high values mean tight binding
row,Binder,binding signal
1,B1,2.1 enrichment R
2,B2,0.674 enrichment R
3,B3,1.06 enrichment R
4,B4,1.33 enrichment R
5,B5,0.903 enrichment R
6,B6,0.86 enrichment R
7,B7,1.65 enrichment R
8,B8,1.4 enrichment R
9,B9,0.454 enrichment R
10,B10,0.773 enrichment R
11,B11,2.07 enrichment R
12,B12,1.13 enrichment R
13,B13,0.929 enrichment R
14,B14,1.3 enrichment R
